Screen size: about 54,000 compounds; about 120 (0.22%) were called active. This list was built around the results that the source calls inconclusive (neither active nor inactive); the mix of calls is not that of the screen. The call rests on the fitted dose curve; in most records, active means well fitted inhibition curve with a large enough effect; inconclusive means small, poorly fitted or top-dose-only effect, or effect the other way; inactive means flat fitted curve, though single readings scatter. No potency is given beside an inconclusive call; the fits are too rough.
molecular target: Fumarate hydratase, mitochondrial (Homo sapiens) (UniProt P07954); experiment: Identification of activators of human fumarate hydratase by quantitative high-throughput screening; details: FH coupled MDH/diaphorase resazurin fluorescence, 15 min; series mostly up to 79.9 µM; further: the screen sought activators but most active calls are inhibition curves; nearly all actives have a fitted effect of over 45% in size
Potency means the concentration at half of the fitted maximal effect; tags describe the fitted curve by direction and shape.

UniProt P07954, sequence (P07954 whole entry, looked up): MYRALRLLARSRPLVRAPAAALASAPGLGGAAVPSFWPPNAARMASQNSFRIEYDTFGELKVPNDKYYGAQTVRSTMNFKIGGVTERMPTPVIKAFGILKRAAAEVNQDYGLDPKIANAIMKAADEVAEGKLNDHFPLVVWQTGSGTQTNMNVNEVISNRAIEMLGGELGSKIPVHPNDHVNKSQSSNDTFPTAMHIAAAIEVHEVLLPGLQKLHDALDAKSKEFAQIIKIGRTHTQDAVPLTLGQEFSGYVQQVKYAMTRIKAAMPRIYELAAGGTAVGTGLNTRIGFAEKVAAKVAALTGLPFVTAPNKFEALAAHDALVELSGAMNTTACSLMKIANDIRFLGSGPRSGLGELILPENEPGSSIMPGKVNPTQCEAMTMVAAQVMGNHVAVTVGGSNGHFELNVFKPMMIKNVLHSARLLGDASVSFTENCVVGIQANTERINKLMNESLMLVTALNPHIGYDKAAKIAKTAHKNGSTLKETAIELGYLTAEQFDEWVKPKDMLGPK

Structure (SMILES)	Potency
COc1ccc(N(C)C(=O)c2cc3c(s2)-c2ccccc2OC3)cc1	inconclusive [inhibitor, partial curve, poor fit]
Cc1ccc(Cl)cc1N1CCN(C(=O)C2CCCN(Cc3nc(-c4cccc(Cl)c4)oc3C)C2)CC1 (configuration not stated)	inconclusive [inhibitor, single point]
COc1ccc(CCNC(=O)C(=O)NCC(c2cccnc2)N2CCN(c3ccccc3)CC2)cc1 (configuration not stated)	inactive
CCOc1ccc(NC(=O)CN(C)S(=O)(=O)c2ccc3[nH]c4c(c3c2)CCCC4)cc1	inconclusive [inhibitor, partial curve, poor fit]
CCc1cccc(NC(=O)CCS(=O)(=O)c2cc3c4c(c2)CCN4C(=O)CC3)c1	inconclusive [inhibitor, partial curve, poor fit]
CC(C)CCNC(=O)c1cn(C)c2ccc(S(=O)(=O)N3CCOCC3)cc2c1=O	inconclusive [inhibitor, single point]
COc1ccccc1CNC(=O)c1cc2ccc3ccc(C)[nH]c3c2n1	inconclusive [inhibitor, partial curve, poor fit]
Cc1ccc(C)c(N2CCN(CCCNC(=O)c3ccc4nc(CCc5ccccc5)oc4c3)CC2)c1	inconclusive [inhibitor, partial curve, poor fit]
COC(=O)c1scc(-c2ccc(C)cc2)c1S(=O)(=O)Nc1cc(C)ccc1OC	inconclusive [inhibitor, partial curve, poor fit]
CC(C)CCn1c(/C=C/c2ccccc2)nc2ccccc21	inconclusive [inhibitor, single point]
Cc1ccc(-c2cn3ccc(C)cc3n2)cc1	inactive
CCOC(=O)Cn1c(=O)n(C2CCCCC2)c2nc(-c3c(F)cccc3Cl)nc(C(N)=O)c21	inconclusive [inhibitor, single point]
Cc1cccc(N2CCN(C(=O)C3CCN(c4ncnc5c4nc4n5CCCCC4)CC3)CC2C)c1 (configuration not stated)	inactive
CCc1nn(C(C)C(=O)N2CCN(c3ccccc3)CC2)c(=O)c2cc3occc3n12 (configuration not stated)	inactive
Cc1ccc(S(=O)(=O)Nc2ccc3nc(-c4ccc(F)cc4)oc3c2)cc1	inconclusive [inhibitor, partial curve]
O=C(CSCc1cnn(-c2ccccc2)c1-n1cccc1)NCc1cccc(Cl)c1	inconclusive [inhibitor, partial curve, poor fit]
Cc1cccc(CNC(=O)Cn2ccc3cc(S(=O)(=O)N4CCCCCC4)ccc32)c1	inconclusive [inhibitor, partial curve]
